Results published in the supplement of paper PMC4967469.
Lines with a small IC50 respond at low doses; a fit beyond the top or the lowest dose is shown as a bound at that dose. The AUC spans the tested range (256-fold, ending at the top dose) of the same fit: 1 means no effect, lower means more sensitive. For some assays here: The top dose, if marked as inferred, comes from the curve model; the source does not state it.

Columns and labels:
Assay in all cases: Viability of human cancer cell lines after 72 h of drug (GDSC screen)
SGC0946 = compound: CC(C)N(CCCNC(=O)Nc1ccc(C(C)(C)C)cc1)C[C@H]1O[C@@H](n2cc(Br)c3c(N)ncnc32)[C@H](O)[C@@H]1O [SGC0946]; settings: top dose 0.5 µM; top dose inferred
Protocol: (§1)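 Human cancer cell lines in 384-well plates, medium with 10% serum, drug for 72 h over a 256-fold dose range (nine 2-fold or five 4-fold steps up to the top dose). Adherent lines were fixed and stained with the nucleic acid dye Syto60, suspension lines read with resazurin; signal relative to control wells, capped at 0 and 100%. One two-parameter sigmoid per drug and line, fitted in a mixed model over all curves with the slope shared within a line.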

Lenalidomide = compound: Nc1cccc2c1CN(C1CCC(=O)NC1=O)C2=O [Lenalidomide]; settings: top dose 5 µM; top dose inferred
Protocol: as §1

VX-680 = compound: Cc1cc(Nc2cc(N3CCN(C)CC3)nc(Sc3ccc(NC(=O)C4CC4)cc3)n2)n[nH]1 [VX-680]; settings: top dose 2 µM
Protocol: as §1

Bryostatin 1 = compound: CCC/C=C/C=C/C(=O)O[C@H]1/C(=C/C(=O)OC)C[C@H]2C[C@H]([C@@H](C)O)OC(=O)C[C@H](O)C[C@@H]3C[C@H](OC(C)=O)C(C)(C)[C@](O)(C[C@@H]4C/C(=C/C(=O)OC)C[C@H](/C=C/C(C)(C)[C@]1(O)O2)O4)O3 [Bryostatin 1]; settings: top dose 0.008 µM; top dose inferred
Protocol: as §1

GW-2580 = compound: COc1ccc(COc2ccc(Cc3cnc(N)nc3N)cc2OC)cc1 [GW-2580]; settings: top dose 20 µM; top dose inferred
Protocol: as §1

Row | Cell Line | AUC (SGC0946) | IC50 (SGC0946) | AUC (Lenalidomide) | IC50 (Lenalidomide) | AUC (VX-680) | IC50 (VX-680) | AUC (Bryostatin 1) | IC50 (Bryostatin 1) | AUC (GW-2580) | IC50 (GW-2580)
1 | MONO-MAC-6 (acute myeloid leukaemia, suspension) | 0.98 | > 0.5 µM | 0.945 | > 5 µM | 0.446 | 0.0882 µM | 0.957 | > 0.008 µM | 0.955 | > 20 µM
2 | MS-1 (small cell lung carcinoma, suspension) | 0.991 | > 0.5 µM | 0.99 | > 5 µM | 0.988 | > 2 µM | 0.987 | > 0.008 µM | 0.963 | > 20 µM
3 | MZ1-PC (pancreas, adherent) | 0.977 | > 0.5 µM | 0.979 | > 5 µM | 0.82 | 1.53 µM | 0.977 | > 0.008 µM | 0.678 | 4.46 µM
4 | Mo-T (hairy cell leukaemia, suspension) | 0.979 | > 0.5 µM | 0.953 | > 5 µM | 0.988 | > 2 µM | 0.978 | > 0.008 µM | 0.968 | > 20 µM
5 | NAMALWA (Burkitt lymphoma, suspension) | 0.991 | > 0.5 µM | 0.984 | > 5 µM | 0.585 | 0.205 µM | 0.984 | > 0.008 µM | 0.99 | > 20 µM
6 | NB10 (neuroblastoma, adherent) | 0.971 | > 0.5 µM | 0.984 | > 5 µM | 0.986 | > 2 µM | 0.988 | > 0.008 µM | 0.966 | > 20 µM
7 | NB13 (neuroblastoma, adherent) | 0.988 | > 0.5 µM | 0.984 | > 5 µM | 0.616 | 0.25 µM | 0.984 | > 0.008 µM | 0.973 | > 20 µM
8 | NCI-H82 (small cell lung carcinoma, suspension) | 0.986 | > 0.5 µM | 0.978 | > 5 µM | 0.854 | 1.45 µM | 0.989 | > 0.008 µM | 0.989 | > 20 µM
9 | NCI-H211 (small cell lung carcinoma, adherent) | 0.979 | > 0.5 µM | 0.988 | > 5 µM | 0.601 | 0.235 µM | 0.986 | > 0.008 µM | 0.963 | > 20 µM
10 | NCI-H226 (lung squamous cell carcinoma, adherent) | 0.986 | > 0.5 µM | 0.985 | > 5 µM | 0.982 | > 2 µM | 0.983 | > 0.008 µM | 0.981 | > 20 µM
11 | NCI-H345 (small cell lung carcinoma, suspension) | 0.989 | > 0.5 µM | 0.989 | > 5 µM | 0.956 | > 2 µM | 0.968 | > 0.008 µM | 0.902 | > 20 µM
12 | NCI-H446 (small cell lung carcinoma, semi-adherent) | 0.984 | > 0.5 µM | 0.985 | > 5 µM | 0.887 | > 2 µM | 0.982 | > 0.008 µM | 0.977 | > 20 µM
13 | NCI-H524 (small cell lung carcinoma, suspension) | 0.99 | > 0.5 µM | 0.989 | > 5 µM | 0.559 | 0.178 µM | 0.991 | > 0.008 µM | 0.986 | > 20 µM
14 | NCI-H716 (large intestine, suspension) | 0.978 | > 0.5 µM | 0.861 | > 5 µM | 0.982 | > 2 µM | 0.981 | > 0.008 µM | 0.982 | > 20 µM
15 | NCI-H847 (small cell lung carcinoma, adherent) | 0.98 | > 0.5 µM | 0.993 | > 5 µM | 0.425 | 0.0811 µM | 0.992 | > 0.008 µM | 0.987 | > 20 µM
16 | NCI-H1155 (large cell lung carcinoma, suspension) | 0.993 | > 0.5 µM | 0.993 | > 5 µM | 0.976 | > 2 µM | 0.993 | > 0.008 µM | 0.991 | > 20 µM
17 | NCI-H1395 (lung adenocarcinoma, adherent) | 0.98 | > 0.5 µM | 0.98 | > 5 µM | 0.977 | > 2 µM | 0.982 | > 0.008 µM | 0.936 | > 20 µM
18 | NCI-H1436 (small cell lung carcinoma, suspension) | 0.942 | > 0.5 µM | 0.982 | > 5 µM | 0.927 | > 2 µM | 0.982 | > 0.008 µM | 0.945 | > 20 µM
19 | NCI-H1694 (small cell lung carcinoma, suspension) | 0.987 | > 0.5 µM | 0.983 | > 5 µM | 0.976 | > 2 µM | 0.988 | > 0.008 µM | 0.891 | > 20 µM
20 | NCI-H1770 (non-small cell lung carcinoma, suspension) | 0.992 | > 0.5 µM | 0.991 | > 5 µM | 0.959 | > 2 µM | 0.984 | > 0.008 µM | 0.99 | > 20 µM
21 | NCI-H1836 (small cell lung carcinoma, suspension) | 0.986 | > 0.5 µM | 0.988 | > 5 µM | 0.958 | > 2 µM | 0.988 | > 0.008 µM | 0.843 | 16.4 µM
22 | NCI-H1838 (lung adenocarcinoma, adherent) | 0.985 | > 0.5 µM | 0.978 | > 5 µM | 0.986 | > 2 µM | 0.987 | > 0.008 µM | 0.987 | > 20 µM
23 | NCI-H1869 (lung squamous cell carcinoma, adherent) | 0.983 | > 0.5 µM | 0.982 | > 5 µM | 0.976 | > 2 µM | 0.985 | > 0.008 µM | 0.976 | > 20 µM
